Assay results from ChEMBL document CHEMBL4888484, “Replenishing the malaria drug discovery pipeline: Screening and hit evaluation of the MMV Hit Generation Library 1 (HGL1) against asexual blood stage Plasmodium falciparum ,using a nano luciferase reporter read-out” (2022).
In all, about 150,000 compounds went through this assay and about 540 (0.36%) showed an effect of 50% or more. The list shows a part of the results.

What follows are compounds tested on Plasmodium falciparum (assay: Primary screen in NF54 nanoGlo assay, in single point, at 2uM, 72h; a lower Z score goes with more inhibition). Conditions: timepoint 72 hour.
Assay type: functional, Erythrocyte

| SMILES | % Inhibition | Z score |
| --- | --- | --- |
| COC[C@](C)(NC(=O)C1C(C)(C)C1(C)C)C(=O)O | -18% | 2.42 |
| CC(C)(C)[C@@H](N)Cc1ccc(Cl)cc1 | -14% | 2.23 |
| C[C@@H](Cn1cccn1)NCc1nnnn1C1CC1 | -1% | 0.1 |
| Cn1cc(CCN2CCN(C(=O)COc3ccc(Cl)cc3Cl)CC2)nn1 | -6% | 1.06 |
| CC(C)N1C[C@@H]2OCC(=O)N(Cc3ccncc3)[C@@H]2C1 | 14% | -1.61 |
| C[C@@H](Cc1cnccn1)NCc1c(C(=O)N2CCCCCCC2)nc2ccc(Cl)cn12 | -18% | 1.96 |
| OC1CCN(CCc2cc(Cl)c3c(c2)OCCCO3)CC1 | -7% | 1.28 |
| Cc1nc(Cn2nc(C(C)(C)C)oc2=O)oc1C | 35% | -0.83 |
| Cc1csc(C[C@H]2CCN(C(=O)c3ccc4oc(=O)[nH]c4c3)C2)n1 | -16% | 2.08 |
| CC1C(=O)CCC1CC(=O)N1CCC(c2n[nH]c(=O)o2)CC1 (centres undefined) | -3% | 0.51 |
| Cc1ccsc1CN1CC2(C1)CN(C)C(=O)O2 | -14% | 2.73 |
| O=C(Cc1ccccc1)N1CCN2CCS(=O)(=O)N(C3CC3)C(=O)[C@@H]2C1 | -17% | 2.21 |
| O=C(COc1ccc(F)cc1)N1C[C@@H]2CC[C@H]1CN(Cc1cscn1)C2 | -3% | 0.47 |
| C[C@@H](Cc1ccc(Cl)cc1)N(C)CCS(C)(=O)=O | -12% | 1.86 |
| N#Cc1cccnc1NC1CCN2CCCCC12 (centres undefined) | -11% | 1.74 |
| CCOc1ccccc1C1=CCNCC1 | 2% | -0.25 |
| N#Cc1ccc(N2CCN([C@H]3CCS(=O)(=O)C3)CC2)cn1 | 4% | -0.41 |
| CC(C)c1ncc(CN2C[C@H]3CC[C@@H](C2)N(C)C3=O)cn1 | -5% | 0.91 |
| O=C(Cc1ccc(F)cc1F)N1C2CCC1CC2 | -15% | 1.7 |
| COc1cccc([C@H]2CCN(Cc3cnn(C)c3C3CC3)C[C@@H]2O)c1 | 7% | -1 |
| O=C1Nc2ccccc2O[C@H]2C[C@@H]1N(Cc1cccnc1)C2 | -3% | 0.42 |
| CCN(CC)C(=O)c1ccc2c(c1)NC(=O)[C@@H]1CCCCN21 | -12% | 1.65 |

| SMILES | % Inhibition | Z score |
| --- | --- | --- |
| CC(C)CCC(=O)N1CCC2CCN(C)CC21 (centres undefined) | -3% | 0.4 |
| CC1CCCCC1Nc1ccc2oc(=O)[nH]c2c1 (centres undefined) | -18% | 2.14 |
| CC(C)NC(=O)N1C[C@@H]2C[C@H](C1)c1c(-c3ccccc3F)ccc(=O)n1C2 | -10% | 1.82 |
| O=C(Cn1c(-c2ccc(Cl)cc2)coc1=O)NCc1cccc(Cl)c1 | -10% | 1.13 |
| CN(C)C(=O)Oc1cccc(OCc2cn3ccccc3[n+]2C)c1 | 6% | -0.7 |
| O=C(c1ccccn1)N1CC[C@@H]2CN(Cc3ccncc3)[C@@H]2C1 | 4% | -0.89 |
| O=C(NC[C@H]1CN2CCN1CC2)c1ncnc2ccsc12 | 1% | -0.19 |
| CC(C)N1C[C@@H](c2ccc3c(c2)OCO3)[C@@H]2[C@H]1C1CCN2CC1 | -1% | 0.24 |
| COc1cc2c(cc1OC)[C@@H](c1c(O)n(C)c(=O)n(C)c1=O)NCC2 | 10% | -1.49 |
| COCCOCCNC1CC(C)(C)CC1C (centres undefined) | -12% | 1.49 |
| COc1c(C)[nH]cc(CN(C)c2ccnc(-c3nccs3)n2)c1=O | -15% | 2.8 |
| c1cc(CN2CCC3(CCCCCC3)C2)n[nH]1 | 0% | -0.05 |
| CCc1nc2c(c(=O)[nH]1)C[C@H]1CC[C@@H](C2)N1C(=O)c1sc(C)nc1C | 7% | -1.01 |
| N#Cc1ccc(N2CCC[C@@H]2CO)cc1Cl | -15% | 1.58 |
| CN1CC[C@H]2CC[C@@H](C1)N2C(=O)c1cc(=O)[nH]c2c1CCCC2 | -12% | 2.17 |
| CN1C[C@@H]2CCC[C@H]1CN(C(=O)c1cncc(O)c1)C2 | -12% | 1.09 |
| C#C[C@H]1C[N@@]2CC[C@H]1C[C@@H]2CNS(=O)(=O)c1ccc(NC(C)=O)cc1 | 5% | -0.92 |
| N#Cc1ccc(-c2ccc(C(=O)N3CC[C@@](O)(CO)C3)cc2)cc1Cl | -15% | 1.98 |
| Cc1noc(C)c1CC(=O)N1CCC[C@H](N2CCOCC2)C1 | -4% | 0.36 |
| COc1cc(CNC(C)C(c2ccccc2)N(C)C)sn1 (centres undefined) | -5% | 0.74 |
| CC(C)N1C(=O)N=C(O)C2(Cc3ccccc3N3CC(c4ccccc4)CC32)C1=O (centres undefined) | 2% | -0.22 |
| COc1ccc(-c2n[nH]c3c2C2(C(=O)O)CC(N3)c3ccccc3O2)cc1 (centres undefined) | 2% | -0.23 |

| SMILES | % Inhibition | Z score |
| --- | --- | --- |
| COc1ccc(C[C@H]2CCCN2)cc1C | -31% | 3.62 |
| CO[C@H]1C[C@H]2CC[C@@H](C1)N2Cc1ccc2c(c1)OCCO2 | -17% | 2.03 |
| CN1c2ncccc2CN(Cc2cccnc2)CC[C@H]1CO | 13% | -1.52 |
| O=C(C1CCN(c2nccc3c2ccn3Cc2ccccc2)CC1)N1CCC2(CC1)OCCO2 | -9% | 1.51 |
| CC(C)n1cncc1CN(C)CCc1ccccc1 | 2% | -0.28 |
| COc1ccc(Cc2nc(-c3ccc4c(c3)oc(=O)n4C)no2)cc1 | -16% | 1.51 |
| CC1CCc2sc(C(=O)N3CCC4(CC3)OCC(C)O4)cc2C1 (centres undefined) | 2% | -0.44 |
| Cc1nc(O)c(Cl)c(N2CCC[C@]3(CCCN(C)C3)C2)n1 | -4% | 0.63 |
| COc1ccc(CC(=O)N2CC[C@@]3(C2)C(=O)Nc2ccc(OC)cc23)cc1 | -14% | 1.91 |
| CC1CCC(N2CC3CC(C2)c2cccc(=O)n2C3)CC1 (centres undefined) | -13% | 1.89 |
| Cc1ccc([C@H]2CN(C(=O)Cc3ccc4c(c3)OCO4)C[C@@H]2N(C)C)cc1 | 0% | -0.01 |
| C[C@H](Oc1cc(Cl)ccc1Cl)C(=O)N1CCC2(CC1)OCCO2 | -9% | 1.52 |
| COCCN1C(=O)N=C(O)C2(Cc3ccccc3N3CCN(c4ccccc4)CC32)C1=O (centres undefined) | -4% | 0.53 |
| O=C1CCCCCN1[C@@H](O)C(Cl)(Cl)Cl | -6% | 0.72 |
| N#Cc1ccccc1C(=O)N1C[C@@H](c2cccc(O)c2)[C@@H]2[C@H]1C1CCN2CC1 | -12% | 1.88 |
| CCOc1ccc(-n2c(-c3ccccn3)nc3ccccc3c2=O)cc1 | -4% | 0.44 |
| Cc1oc(-c2ccccc2)nc1Cn1c(-c2ccccc2)noc1=O | -6% | 0.75 |
| CC1CN2CCCC2CN1S(=O)(=O)Cc1ccon1 (centres undefined) | -11% | 1.41 |
| Cn1cc(C(=O)NC2CCCC2)c2cccnc21 | -9% | 0.93 |
| O=C(Cc1ccc(F)cc1F)N1CCN(CCc2cnccn2)CC1 | -8% | 0.95 |
| O=C1NC(=O)C2(Cc3ccccc3N3CCCC32)C(=O)N1c1ccc(Cl)cc1 (centres undefined) | 15% | -1.84 |
| CN(C)S(=O)(=O)c1ccc(C(=O)N2CCC(=O)CC2)cc1 | -7% | 1.15 |

| SMILES | % Inhibition | Z score |
| --- | --- | --- |
| COc1ccc(Cc2nc(-c3ccc4c(c3)oc(=O)n4C)no2)c(Cl)c1 | 1% | -0.1 |
| CC1CCN(CC(=O)O)C2CCCCC12 (centres undefined) | -4% | 0.55 |
| CN1CCN(C(=O)c2cccnc2C2CC2)C[C@@]12CCOC2 | -4% | 0.53 |
| COc1c(F)cc(CN2C[C@H]3c4ccccc4OC[C@@]3(C(=O)O)C2)cc1F | -3% | 0.5 |
| O=C(O)C1CC2CCC1N2Cc1ccc2c(c1)CCC2 (centres undefined) | 3% | -0.35 |
| O=C(Oc1ccc2ccc(OC(=O)N3CCOCC3)cc2c1)N1CCOCC1 | 1% | -0.25 |
| CN(CC[C@H]1CCCCO1)S(=O)(=O)c1ccc2[nH]c(=O)oc2c1 | -2% | 0.31 |
| FC(F)(F)c1ccc(N2CC[C@H]3CC[C@@H](C2)N3)nc1 | -7% | 1.13 |
| C[C@@H](Cc1ccc(Cl)cc1)NCC1(N(C)C)CCOCC1 | -4% | 0.33 |
| Cc1nc(N2C[C@H](c3ccccc3)[C@@H]3[C@H]2C2CCN3CC2)c2c(C)noc2n1 | 11% | -1.61 |
| Cn1nc(C(=O)N2CCC3(CC2)OCCO3)c2ccccc2c1=O | -14% | 2.25 |
| O=C1CCCN1C(=O)c1ccc(Cl)cc1 | -5% | 0.73 |
| O=C1C[N+]([O-])=C(c2ccccc2)c2cc(Cl)ccc2N1 [DEMOXEPAM] | 24% | -2.73 |
| COc1ccc(CCN[C@@H](C)c2ccncc2)cc1OC | 1% | -0.13 |
| CN(C)[C@@H]1CN(C(=O)Cc2cccc(F)c2)CC[C@@H]1CO | -13% | 2.27 |
| CCc1nsc(N2CCc3nccc(N)c3C2)n1 | 9% | -1.17 |
| COc1ccc(C(C)NC(C)Cc2ccc(C)s2)cc1NC(C)=O (centres undefined) | 0% | 0.02 |
| Cc1cc(NC(=O)CN2CCCC3CCCCC32)no1 (centres undefined) | -8% | 1.18 |
| Cc1noc(C)c1CC(C)NC1CCc2ccc(F)cc21 (centres undefined) | -2% | 0.14 |
| N#CC1CCC(N2CCN3C(=O)NCC3C2)C1 (centres undefined) | 5% | -0.81 |
| Cc1nsc(N2C3CCC2C(C(=O)OC(C)(C)C)C3)n1 (centres undefined) | 4% | -0.41 |
